Test results taken from a collection of fitness landscapes (doi:10.1126/science.1257360).
The list shows a part of the results.

B1: PhoQ; a variant is named by its letters at X, in order, P23837 (parent)
chain: MKKLLRLFFPLSLRVRFLLATAAVVLVLSLAYGMVALIGYSVSFDKTTFRLLRGESNLFYTLAKWENNKLHVELPENIDKQSPTMTLIYDENGQLLWAQRDVPWLMKMIQPDWLKSNGFHEIEADVNDTSLLLSGDHSIQQQLQEVREDDDDAEMTHSVAVNVYPATSRMPKLTIVVVDTIPVELKSSYMVWSWFIYVLSANLLLVIPLLWVAAWWSLRPIEALAKEVRELEEHNRELLNPATTRELTSLVRNLNRLLKSERERYDKYRTTLTDLTHSLKTPLXXLQXXLRSLRSEKMSVSDAEPVMLEQISRISQQIGYYLHRASMRGGTLLSRELHPVAPLLDNLTSALNKVYQRKGVNISLDISPEISFVGEQNDFVEVMGNVLDNACKYCLEFVEISARQTDEHLYIVVEDDGPGIPLSKREVIFDRGQRVDTLRPGQGVGLAVAREITEQYEGKIVAGESMLGGARMEVIFGRQHSAPKDE

Variants of: B1
Test: enrichment ratio after two sorts for PhoP signalling (ratio (wild type AVST 3.29)); higher = more functional
Details: with PhoP (E. coli)

Variant | enrichment ratio
NHHA | ≤ 0.25
IFSH | ≤ 0.25
THLV | 10.5
LAEY | ≤ 0.25
PFEL | ≤ 0.25
GQPP | ≤ 0.25
QDLI | ≤ 0.25
TGCF | 9.56
LYSK | ≤ 0.25
IVTQ | ≤ 0.25
ITRM | ≤ 0.25
ELNN | ≤ 0.25
RKIM | ≤ 0.25
SMKT | ≤ 0.25
LSKV | ≤ 0.25
SKTV | 9.09
QTVR | ≤ 0.25
RHNL | ≤ 0.25
DHVI | ≤ 0.25
DYRY | ≤ 0.25
EPFV | ≤ 0.25
GNCV | 9.3
EPCS | ≤ 0.25
KYMR | ≤ 0.25

Variant | enrichment ratio
ALTD | ≤ 0.25
HGYN | ≤ 0.25
FTEG | ≤ 0.25
HNFE | ≤ 0.25
QSWN | 21.4
CISI | 0.317
MSRN | ≤ 0.25
KTGF | ≤ 0.25
VKEE | ≤ 0.25
LYGQ | ≤ 0.25
NNHL | ≤ 0.25
ISYK | ≤ 0.25
ANRL | 0.32
NKYI | ≤ 0.25
VNEK | ≤ 0.25
YYWR | ≤ 0.25
SVMC | 8.1
KLIH | ≤ 0.25
PCCI | ≤ 0.25
GGFD | 1.13
SEKP | ≤ 0.25
CFYI | ≤ 0.25
GVCY | 7.53
NFQG | ≤ 0.25

Variant | enrichment ratio
LMDC | ≤ 0.25
IRKD | ≤ 0.25
NNVL | 1.25
SWSN | ≤ 0.25
KNVR | ≤ 0.25
RKTY | ≤ 0.25
NWGT | ≤ 0.25
YSFH | ≤ 0.25
MDQR | ≤ 0.25
LPHA | ≤ 0.25
EYDT | ≤ 0.25
RERA | ≤ 0.25
GLDM | ≤ 0.25
PCMY | ≤ 0.25
TWQF | ≤ 0.25
GCLS | 19.3
RSFI | ≤ 0.25
VDQE | ≤ 0.25
YSEK | ≤ 0.25
SADH | ≤ 0.25
LMYL | ≤ 0.25
WTYR | ≤ 0.25
ESPF | ≤ 0.25
EAQK | ≤ 0.25

Variant | enrichment ratio
DPLW | 1.04
IWHE | ≤ 0.25
ASSD | ≤ 0.25
IGYY | ≤ 0.25
YFNT | ≤ 0.25
INWP | ≤ 0.25
DPLF | ≤ 0.25
QNIS | ≤ 0.25
KYWT | ≤ 0.25
FCRV | ≤ 0.25
VICK | ≤ 0.25
PAMK | ≤ 0.25
PVYF | ≤ 0.25
MPHC | ≤ 0.25
PHQN | ≤ 0.25
ETHC | ≤ 0.25
YYNT | ≤ 0.25
KQTK | ≤ 0.25
RAGY | ≤ 0.25
SCCR | 4.7
SMSR | ≤ 0.25
SAWD | ≤ 0.25
PQAY | ≤ 0.25
WALR | ≤ 0.25

Variant | enrichment ratio
NNKN | ≤ 0.25
NEWR | ≤ 0.25
MDKW | ≤ 0.25
HEMA | ≤ 0.25
FRMA | ≤ 0.25
QVIK | ≤ 0.25
MITP | ≤ 0.25
SLPI | 10
QTWM | ≤ 0.25
IVVD | ≤ 0.25
YKRY | ≤ 0.25
TNID | ≤ 0.25
MRED | ≤ 0.25
FGKA | ≤ 0.25
ESTP | ≤ 0.25
NHQW | ≤ 0.25
HFKL | ≤ 0.25
THFI | ≤ 0.25
NWID | ≤ 0.25
YDAN | ≤ 0.25
KYDR | ≤ 0.25
YPRT | ≤ 0.25
EMRY | ≤ 0.25
LFTF | ≤ 0.25

Variant | enrichment ratio
HHTG | ≤ 0.25
FCYM | ≤ 0.25
AVYM | 0.267
NPDA | ≤ 0.25
PMVD | ≤ 0.25
QTWN | 16.8
TVYR | 2.14
QILH | ≤ 0.25
VHRG | ≤ 0.25
LNAV | ≤ 0.25
WFQM | ≤ 0.25
NSIN | ≤ 0.25
STFI | ≤ 0.25
WPYG | ≤ 0.25
FGEL | ≤ 0.25
NPLA | ≤ 0.25
EGIG | ≤ 0.25
LHKC | ≤ 0.25
SSND | ≤ 0.25
YAKY | ≤ 0.25
RMID | ≤ 0.25
RREY | ≤ 0.25
MNYF | 2.7
VPHF | ≤ 0.25

Variant | enrichment ratio
ILYI | ≤ 0.25
HICA | ≤ 0.25
ERRH | ≤ 0.25
MFIH | ≤ 0.25
EIES | ≤ 0.25
MSTM | 5.94
IEAF | ≤ 0.25
MWAD | ≤ 0.25
EMEV | ≤ 0.25
VFSK | ≤ 0.25
ITQM | ≤ 0.25
FLFK | ≤ 0.25
IPIS | ≤ 0.25
QGQL | ≤ 0.25
HWYI | ≤ 0.25
WYTL | ≤ 0.25
LLVQ | ≤ 0.25
VHWF | ≤ 0.25
HLVS | ≤ 0.25
TATG | 18
WSPN | ≤ 0.25
HTGV | ≤ 0.25
ARMY | ≤ 0.25
LRPP | ≤ 0.25

Variant | enrichment ratio
FTLD | ≤ 0.25
NWYP | ≤ 0.25
MKRP | ≤ 0.25
IDRP | ≤ 0.25
QRKW | ≤ 0.25
APRP | ≤ 0.25
EYPL | ≤ 0.25
KCVP | ≤ 0.25
ADFW | ≤ 0.25
ARTA | ≤ 0.25
SDLW | ≤ 0.25
YMGF | ≤ 0.25
LALM | 8.02
TKHS | ≤ 0.25
LWMN | ≤ 0.25
FKYS | ≤ 0.25
HMDY | ≤ 0.25
QHGM | ≤ 0.25
DVWG | ≤ 0.25
PLSQ | ≤ 0.25
VEQW | ≤ 0.25
PCWH | ≤ 0.25
AWCS | ≤ 0.25
KFCL | ≤ 0.25

Variant | enrichment ratio
FVRH | ≤ 0.25
FTPV | ≤ 0.25
TYFW | ≤ 0.25
DMMH | ≤ 0.25
YGVW | ≤ 0.25
VWHG | ≤ 0.25
SLHC | ≤ 0.25
HATT | ≤ 0.25
KVPF | ≤ 0.25
APVK | ≤ 0.25
RYED | ≤ 0.25
LTVP | 0.369
DWGG | ≤ 0.25
IKIR | ≤ 0.25
DNWL | ≤ 0.25
MYHF | ≤ 0.25
PQMM | ≤ 0.25
QKMV | ≤ 0.25
LSRN | ≤ 0.25
PHEY | ≤ 0.25
KNQN | ≤ 0.25
HFSA | ≤ 0.25
TYMQ | 1.36
QDGQ | ≤ 0.25

Variant | enrichment ratio
DSHR | ≤ 0.25
ICRY | ≤ 0.25
YKDW | ≤ 0.25
RRCF | ≤ 0.25
PIFY | ≤ 0.25
WVYL | ≤ 0.25
LIWS | ≤ 0.25
HILY | ≤ 0.25
IKSS | ≤ 0.25
WDLC | ≤ 0.25
HTGF | ≤ 0.25
ACDF | ≤ 0.25
PCKI | ≤ 0.25
PILA | ≤ 0.25
TMDS | ≤ 0.25
SDNG | ≤ 0.25
AHPQ | ≤ 0.25
FHLC | ≤ 0.25
YDSM | ≤ 0.25
VSFY | 2.3
ELTP | ≤ 0.25
IYDK | ≤ 0.25
VLFI | ≤ 0.25
ICNL | ≤ 0.25

Variant | enrichment ratio
MKYM | 6.46
PWAN | ≤ 0.25
MQKK | ≤ 0.25
NSPI | ≤ 0.25
YPVC | ≤ 0.25
LAGM | ≤ 0.25
YEDM | ≤ 0.25
YNQA | ≤ 0.25
QQRH | ≤ 0.25
GRTR | ≤ 0.25
AEVY | 6.64
IGCA | ≤ 0.25
QPMR | ≤ 0.25
GFMA | ≤ 0.25
TALD | 5.84
TTTF | 7.89
VSRM | ≤ 0.25
TEWV | 18.4
KTAD | ≤ 0.25
PIGM | ≤ 0.25
VYHF | ≤ 0.25
LMNG | ≤ 0.25
SYIV | 0.657
DGVP | ≤ 0.25

Variant | enrichment ratio
HNMQ | ≤ 0.25
SLEG | ≤ 0.25
TRPF | ≤ 0.25
FEHP | ≤ 0.25
SHSA | ≤ 0.25
VPIL | ≤ 0.25
IDLL | ≤ 0.25
TLSS | 12
EAVR | ≤ 0.25
TAHQ | 1.58
RWYH | ≤ 0.25
TPDS | ≤ 0.25
FQFS | ≤ 0.25
SHKI | ≤ 0.25
VWRC | ≤ 0.25
SFQT | ≤ 0.25
VSIK | ≤ 0.25
LFFS | ≤ 0.25
PIQL | ≤ 0.25
AWVD | ≤ 0.25
QAVK | ≤ 0.25
PAST | ≤ 0.25
YNWK | ≤ 0.25
QESS | 19.7

Variant | enrichment ratio
PVIR | ≤ 0.25
FGVV | 0.429
DLRQ | ≤ 0.25
KRAI | ≤ 0.25
QVGR | ≤ 0.25
WLHL | ≤ 0.25
GLGM | ≤ 0.25
PENG | ≤ 0.25
YKVN | ≤ 0.25
SGAM | 9.22
EGCH | ≤ 0.25
LPAR | ≤ 0.25
MDDI | ≤ 0.25
RAGA | ≤ 0.25
NIAQ | ≤ 0.25
QHWK | ≤ 0.25
KTME | ≤ 0.25
KKWK | ≤ 0.25
